The source of these data is paper PMC9911399, “Two distinct binding modes provide the RNA-binding protein RbFox with extraordinary sequence specificity”.

B1: UCAGACU (DNA:RNA)
RNA: GGGAGACCGGAAUUCAGAUUGUCCUCAGACUUUAAAUCCCGUCGUAGCCACCA
DNA 1: CAATCTGAATTCCGGTCTCCC
DNA 2: TGGTGGCTACGACGGGATT
B2: AGCACUA (DNA:RNA)
RNA: GGGAGACCGGAAUUCAGAUUGUCCAGCACUAUUAAAUCCCGUCGUAGCCACCA
DNA 1: CAATCTGAATTCCGGTCTCCC
DNA 2: TGGTGGCTACGACGGGATT
B3: UCACCUU (DNA:RNA)
RNA: B1 RNA with G28C, A29C, C30U
DNA 1: CAATCTGAATTCCGGTCTCCC
DNA 2: TGGTGGCTACGACGGGATT
B4: ACUGGUA (DNA:RNA)
RNA: B2 RNA with G26C, C27U, A28G, C29G
DNA 1: CAATCTGAATTCCGGTCTCCC
DNA 2: TGGTGGCTACGACGGGATT
B5: GGACUAU (DNA:RNA)
RNA: B1 RNA with U25G, C26G, G28C, A29U, C30A
DNA 1: CAATCTGAATTCCGGTCTCCC
DNA 2: TGGTGGCTACGACGGGATT
B6: CACAGGG (DNA:RNA)
RNA: B2 RNA with A25C, G26A, C29G, U30G, A31G
DNA 1: CAATCTGAATTCCGGTCTCCC
DNA 2: TGGTGGCTACGACGGGATT
B7: GACGGAA (DNA:RNA)
RNA: B2 RNA with A25G, G26A, A28G, C29G, U30A
DNA 1: CAATCTGAATTCCGGTCTCCC
DNA 2: TGGTGGCTACGACGGGATT
B8: GUAUGUA (DNA:RNA)
RNA: B2 RNA with A25G, G26U, C27A, A28U, C29G
DNA 1: CAATCTGAATTCCGGTCTCCC
DNA 2: TGGTGGCTACGACGGGATT
B9: AUACCCU (DNA:RNA)
RNA: B1 RNA with U25A, C26U, G28C, A29C
DNA 1: CAATCTGAATTCCGGTCTCCC
DNA 2: TGGTGGCTACGACGGGATT
B10: CAUCACA (DNA:RNA)
RNA: B1 RNA with U25C, C26A, A27U, G28C, U31A
DNA 1: CAATCTGAATTCCGGTCTCCC
DNA 2: TGGTGGCTACGACGGGATT
B11: GGGUGUA (DNA:RNA)
RNA: B2 RNA with A25G, C27G, A28U, C29G
DNA 1: CAATCTGAATTCCGGTCTCCC
DNA 2: TGGTGGCTACGACGGGATT
B12: UACCCAG (DNA:RNA)
RNA: B2 RNA with A25U, G26A, A28C, U30A, A31G
DNA 1: CAATCTGAATTCCGGTCTCCC
DNA 2: TGGTGGCTACGACGGGATT
B13: GCAACUG (DNA:RNA)
RNA: B2 RNA with A25G, G26C, C27A, A31G
DNA 1: CAATCTGAATTCCGGTCTCCC
DNA 2: TGGTGGCTACGACGGGATT
B14: AGUGUGU (DNA:RNA)
RNA: B2 RNA with C27U, A28G, C29U, U30G, A31U
DNA 1: CAATCTGAATTCCGGTCTCCC
DNA 2: TGGTGGCTACGACGGGATT
B15: UAAAGCA (DNA:RNA)
RNA: B1 RNA with C26A, G28A, A29G, U31A
DNA 1: CAATCTGAATTCCGGTCTCCC
DNA 2: TGGTGGCTACGACGGGATT
B16: AAGACCU (DNA:RNA)
RNA: B2 RNA with G26A, C27G, U30C, A31U
DNA 1: CAATCTGAATTCCGGTCTCCC
DNA 2: TGGTGGCTACGACGGGATT
B17: UCGCAGC (DNA:RNA)
RNA: B1 RNA with A27G, G28C, C30G, U31C
DNA 1: CAATCTGAATTCCGGTCTCCC
DNA 2: TGGTGGCTACGACGGGATT
B18: AUCUGAU (DNA:RNA)
RNA: B2 RNA with G26U, A28U, C29G, U30A, A31U
DNA 1: CAATCTGAATTCCGGTCTCCC
DNA 2: TGGTGGCTACGACGGGATT
B19: GGCCCUC (DNA:RNA)
RNA: B2 RNA with A25G, A28C, A31C
DNA 1: CAATCTGAATTCCGGTCTCCC
DNA 2: TGGTGGCTACGACGGGATT
B20: AUCUAGA (DNA:RNA)
RNA: B2 RNA with G26U, A28U, C29A, U30G
DNA 1: CAATCTGAATTCCGGTCTCCC
DNA 2: TGGTGGCTACGACGGGATT
B21: UAACCCC (DNA:RNA)
RNA: B1 RNA with C26A, G28C, A29C, U31C
DNA 1: CAATCTGAATTCCGGTCTCCC
DNA 2: TGGTGGCTACGACGGGATT
B22: GGGACAU (DNA:RNA)
RNA: B2 RNA with A25G, C27G, U30A, A31U
DNA 1: CAATCTGAATTCCGGTCTCCC
DNA 2: TGGTGGCTACGACGGGATT
B23: CAGAUCU (DNA:RNA)
RNA: B1 RNA with U25C, C26A, A27G, G28A, A29U
DNA 1: CAATCTGAATTCCGGTCTCCC
DNA 2: TGGTGGCTACGACGGGATT
B24: CGACGCU (DNA:RNA)
RNA: B1 RNA with U25C, C26G, G28C, A29G
DNA 1: CAATCTGAATTCCGGTCTCCC
DNA 2: TGGTGGCTACGACGGGATT
B25: AGCAAUA (DNA:RNA)
RNA: B2 RNA with C29A
DNA 1: CAATCTGAATTCCGGTCTCCC
DNA 2: TGGTGGCTACGACGGGATT
B26: CCAGACG (DNA:RNA)
RNA: B1 RNA with U25C, U31G
DNA 1: CAATCTGAATTCCGGTCTCCC
DNA 2: TGGTGGCTACGACGGGATT
B27: GCGCAGU (DNA:RNA)
RNA: B1 RNA with U25G, A27G, G28C, C30G
DNA 1: CAATCTGAATTCCGGTCTCCC
DNA 2: TGGTGGCTACGACGGGATT
B28: AACUCCA (DNA:RNA)
RNA: B2 RNA with G26A, A28U, U30C
DNA 1: CAATCTGAATTCCGGTCTCCC
DNA 2: TGGTGGCTACGACGGGATT
B29: CGAGAUC (DNA:RNA)
RNA: B1 RNA with U25C, C26G, C30U, U31C
DNA 1: CAATCTGAATTCCGGTCTCCC
DNA 2: TGGTGGCTACGACGGGATT
B30: ACGUACG (DNA:RNA)
RNA: B1 RNA with U25A, A27G, G28U, U31G
DNA 1: CAATCTGAATTCCGGTCTCCC
DNA 2: TGGTGGCTACGACGGGATT
B31: UAAAUCA (DNA:RNA)
RNA: B1 RNA with C26A, G28A, A29U, U31A
DNA 1: CAATCTGAATTCCGGTCTCCC
DNA 2: TGGTGGCTACGACGGGATT

Substitutions are numbered along the chain they refer to; changes in the protein carry UniProt numbers. This is one part of the list.

The assay concerns the target T1, RBFOX1 RRM (Homo sapiens, UniProt Q9NWB1 109-208).
T1 sequence: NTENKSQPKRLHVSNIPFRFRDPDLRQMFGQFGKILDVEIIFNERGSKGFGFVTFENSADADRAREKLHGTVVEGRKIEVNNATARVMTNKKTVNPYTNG
Briefly: EMSA; HiTS-Eq, 1 nM pool, 10 min; buffer printed only for the single-RNA assays: 10 mM Tris pH 7.5, 150 mM NaCl, 3.4 mM EDTA, 0.001% NP-40, 30 C. The conditions noted are these: tags: His6 N-terminal (pET28a); label: 5' 32P. The essentials:
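A pool of RNA with 7 randomized nucleotides, 5′-radiolabelled and with DNA-annealed flanks, was equilibrated at 1 nM for 10 min in 50 µL with purified RbFox RRM, wild type or mutant, across increasing protein concentrations. Free RNA was separated by 8% native PAGE, excised, reverse-transcribed, barcoded by PCR and sequenced. Relative association constants were obtained from read-count changes of each RNA species versus the control reaction and normalised to the cognate motif.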
Background: A gel shift assay detects complexes by their altered migration in electrophoresis.
In the case of B1, the binding signal is 0.00739 KA relative to UGCAUGU.
As to B2, the binding signal is 0.0018 KA relative to UGCAUGU.
Then B3, with 0.00586 KA relative to UGCAUGU.
As for B4, the binding signal was 0.0157 KA relative to UGCAUGU.
For the molecule B5, the binding signal was 0.0123 KA relative to UGCAUGU.
Then B6, with 0.00471 KA relative to UGCAUGU; and B7, with 0.0162 KA relative to UGCAUGU; and B8, with 0.0125 KA relative to UGCAUGU.
Regarding B9, the binding signal was 0.000968 KA relative to UGCAUGU.
B10: the binding signal was 0.00119 KA relative to UGCAUGU.
As for B11, the binding signal was 0.0189 KA relative to UGCAUGU.
Then B12, with 0.00348 KA relative to UGCAUGU.
On to B13, for which the binding signal was 0.0117 KA relative to UGCAUGU.
Then B14, with 0.0155 KA relative to UGCAUGU; and B15, with 0.0104 KA relative to UGCAUGU; and B16, with 0.00276 KA relative to UGCAUGU.
With B17 the figure was 0.0105 KA relative to UGCAUGU.
With B18 the figure was 0.00644 KA relative to UGCAUGU.
As for B19, the binding signal was 0.0202 KA relative to UGCAUGU.
Then B20, with 0.00837 KA relative to UGCAUGU; and B21, with 0.00285 KA relative to UGCAUGU; and B22, with 0.0188 KA relative to UGCAUGU.
For B23, the binding signal is 0.00407 KA relative to UGCAUGU.
With B24, the binding signal is 0.00774 KA relative to UGCAUGU.
As to B25, the binding signal is 0.00118 KA relative to UGCAUGU.
Then B26, with 0.0064 KA relative to UGCAUGU.
Consider B27, for which the binding signal was 0.0136 KA relative to UGCAUGU.
In the case of B28, the binding signal is 0.000608 KA relative to UGCAUGU.
Then B29, with 0.00911 KA relative to UGCAUGU.
With B30 the figure was 0.0111 KA relative to UGCAUGU; with B31, 0.0059 KA relative to UGCAUGU.
